The other results are listed elsewhere or left out. Further columns of the screen follow, without active or inactive calls.

What all share (assay): Primary Screen for Target Class Profiling of Small Molecule Inhibitors of Methyltransferases
Experiment [1] deals with Glycine N-methyltransferase (Homo sapiens) (UniProt Q14749). The note with it: purified enzyme, MTase-Glo SAH luminescence; measured here: GNMT inhibition; at 40 µM; stronger effect = lower value. An outline of the steps: (§1)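 Each enzyme was reacted with SAM and its substrate, with compounds tested once at 40 uM; SAH formed was read by MTase-Glo luminescence.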
Experiment [2] deals with Guanidinoacetate N-methyltransferase (Homo sapiens) (UniProt Q14353). The conditions noted are these: purified enzyme, MTase-Glo SAH luminescence; measured here: GAMT inhibition; at 40 µM; stronger effect = lower value. The gist of the method:
as §1

The target in experiment [3] is Histamine N-methyltransferase (Homo sapiens) (UniProt P50135). The conditions noted are these: purified enzyme, MTase-Glo SAH luminescence; measured here: HNMT inhibition; at 40 µM; stronger effect = lower value. The gist of the method: as §1
Experiment [4] addresses Nicotinamide N-methyltransferase (Homo sapiens) (UniProt P40261). The conditions noted are these: purified enzyme, MTase-Glo SAH luminescence; measured here: NNMT inhibition; at 40 µM; stronger effect = lower value. The gist of the method: as §1
The target of experiment [5] is Phenylethanolamine N-methyltransferase (Homo sapiens) (UniProt P11086). The conditions noted are these: purified enzyme, MTase-Glo SAH luminescence; measured here: PNMT inhibition; at 40 µM; stronger effect = lower value. The gist of the method:
as §1
% is set by controls: 0 for no effect and ±100 for the full control effect.

With `COCC(=O)NC[C@H]1CCN(Cc2ccc(C)s2)C[C@H]1N(C)C`, the activity change, negative = inhibition was -1.46% in experiment [1]; 0.573% in experiment [2]; -1.28% in experiment [3]; -3.28% in experiment [4]; 1.27% in experiment [5].
For `COCCS(=O)(=O)c1ncc(CN(C)Cc2ccsc2)n1Cc1ccccc1`, in that order: -4.6%, -6.14%, -1.3%, -15.4% and -5.1%.
Consider `Cc1ccccc1CN1CCOc2cc([S+](=O)([O-])Nc3cccnc3)ccc2C1`, for which the activity change, negative = inhibition is -6.33% in experiment [1]; -2.35% in experiment [2]; -0.574% in experiment [3]; -7.74% in experiment [4]; -7.14% in experiment [5].
For `CC1(C(=O)NC2CCCCCC2)Cn2c(cc3occc32)C(=O)N1Cc1cccs1` (stereo not drawn), in that order: 3.69%, 2.33%, 6.72%, -13.2% and -0.83%.
For `CSc1cccc(N2C(=O)c3cc(C(C)(C)C)nn3CC2(C)C(=O)NC2CCCCC2)c1` (stereo not drawn) the same measures were -2.43%, -0.477%, -1.89%, 2.84% and -0.283%.
Take `N#Cc1ccc(C(=O)N2CCC3(CC2)N=C(N)c2c(F)ccc(F)c2N3)cn1`: the activity change, negative = inhibition in experiment [1] was -7.34%; in experiment [2], -19.5%; in experiment [3], -19.4%; in experiment [4], -27.5%; in experiment [5], -23.4%.
For `Cc1cccc(Cn2nc3n(CCc4ccccc4)c(=O)c4ccccc4n3c2=O)c1`, in that order: 0.519%, 4.38%, 5.55%, 0.714% and 0.495%.
For `CCC(C)NC(=O)c1ccc2c(=O)n(C(C)C)c3nn(CC(=O)c4cccc(OC)c4)c(=O)n3c2c1` (stereo not drawn), the activity change, negative = inhibition in experiment [1] was -1.49%; in experiment [2] it was 2.84%; in experiment [3], -0.019%; in experiment [4], -0.856%; in experiment [5], 0.344%.
For `CCCn1c(=O)c2ccc(Cl)cc2n2c(SCC(=O)Nc3ccccc3F)nnc12` the same measures were 1.26%, -1.32%, 12.9%, -4.7% and -2.54%.
`CC(NC(=O)Cn1ccc2cc(S(=O)(=O)N3CCCC3)ccc21)c1ccccc1` (stereo not drawn): the activity change, negative = inhibition was 3.48% in experiment [1]; 0% in experiment [2]; 0.188% in experiment [3]; 0.189% in experiment [4]; -1.07% in experiment [5].
For `c1ccc(-c2ccc(CN3CCOC[C@H](Oc4cnccn4)C3)cc2)cc1` the same measures were -5.78%, -4.76%, -6.74%, -12.3% and -8.89%.
For `CC1(C(=O)NC2CCCCCCC2)Cn2c(cc3sccc32)C(=O)N1CCCc1ccccc1` (stereo not drawn), in that order: 4.65%, 0%, 7.57%, 7.56% and 3.39%.
Regarding `Cn1ncc2c(-c3ccc([S+](C)(=O)[O-])cc3)cc(C(=O)N3CCCC3)nc21`, the activity change, negative = inhibition in experiment [1] was -12.5%; in experiment [2] it was -10%; in experiment [3], -18.2%; in experiment [4], -12.1%; in experiment [5] it was -20.3%.
For `COc1ccc(CCO[C@@H]2CCCC[C@H]2N2CC[C@@H](O)C2)cc1OC` the same measures were 5.97%, 7.6%, -4.87%, -7.91% and 7.46%.
For `CCOc1ccc(CCNC(=O)c2cc3n(n2)CC(C)(C(=O)NC2CCCCC2)N(C)C3=O)cc1` (stereo not drawn) the same measures were -2.8%, -3.89%, 2.59%, -7.66% and -6.12%.
For `NC(N)=NC(N)=Nc1ccccc1`, in that order: 8.02%, 13.9%, -11.6%, -0.7% and 5.92%.
`Cc1ccc(Cn2c(=O)c3ccccc3n3c(CCC(=O)N4CCC(N5CCCCC5)CC4)nnc23)cc1`: the activity change, negative = inhibition in experiment [1] is -9.34%; in experiment [2], 0%; in experiment [3] it was -66%; in experiment [4], 11.2%; in experiment [5] it was 1.88%.
For `COc1ccccc1CN[C@H]1CCCN[C@H]1c1ccccc1`, in that order: 8.11%, 8.99%, 5.41%, -8.52% and 3.57%.
For `OC[C@@H]1CN(CC2CCCCC2)C[C@H]1c1nc(C2CC2)no1`, in that order: -2.17%, -2.67%, 1.58%, -9.12% and 8.48%.
For `CC1(C(=O)NC2CCCCCCC2)Cn2c(ccc2-c2ccco2)C(=O)N1CCc1ccco1` (stereo not drawn), in that order: -7.01%, 0.594%, 1.84%, -11.1% and 2.81%.
Consider `CCS(=O)(=O)N1CCC(N2C(=O)C(OCC3CC3)C23CCCCC3)CC1` (stereo not drawn), for which the activity change, negative = inhibition in experiment [1] is -1.45%; in experiment [2], -0.025%; in experiment [3] it was 1.35%; in experiment [4], 2.08%; in experiment [5] it was -8.68%.
For `C=C(C(=O)O)[C@@H]1CC[C@H](C)[C@@H]2CC(=O)C(C)=C2C1`, in that order: 0.552%, 6.45%, 9.88%, -6.32% and 7.29%.
For `COC(=O)C[C@H]1C(C)(C)[C@H](OC(=O)C(C)C)[C@@]2(O)C(=O)[C@]1(C)C1CC[C@]3(C)C(CC(=O)O[C@H]3c3ccoc3)[C@]13O[C@@H]32` (stereo partly drawn) the same measures were 0%, 2.11%, 2.85%, -10.5% and 4.72%.
As to `CC(C)OCCCn1c(=O)c2ccccc2n2c(SCC(=O)Nc3cccc(F)c3)nnc12`, the activity change, negative = inhibition in experiment [1] was -3.54%; in experiment [2], 1.92%; in experiment [3] it was 4.72%; in experiment [4] it was -6.94%; in experiment [5], -1.3%.
For `Cc1ccc(NC(=O)Cn2c(=O)c3cc(Cl)ccc3n3nncc23)cc1`, in that order: -2.1%, 3.76%, 4.38%, -2.56% and -3.77%.
As to `COC[C@@H]1CN(S(=O)(=O)c2c(C)noc2C)C[C@H]1c1ccncc1`, the activity change, negative = inhibition in experiment [1] was -6.57%; in experiment [2], -1.8%; in experiment [3] it was 0.181%; in experiment [4], -7.98%; in experiment [5], -4.36%.
For `CC(C)C1=NOC2(CCN([S+](=O)([O-])c3cccc(C(F)(F)F)c3)C2)C1` (stereo not drawn) the same measures were -1.56%, 2%, 1.24%, -1.92% and -7.41%.
For `COc1cccc2c1CCC[C@H]2CN(C)CCc1ccc2ccoc2c1` the same measures were 0.441%, -6.56%, 8.87%, -18.7% and -8.78%.
For `COc1c(Cl)cc2c([nH]c3cnccc32)c1NC(=O)c1cccnc1C`, the activity change, negative = inhibition is -24.4% in experiment [1]; -7.16% in experiment [2]; -9.26% in experiment [3]; -17.9% in experiment [4]; -1.34% in experiment [5].
For `CCCC1c2ccc(C)n2CCN1C(=O)NCC1CCC(C(=O)OCC)CC1` (stereo not drawn), in that order: -3.73%, 3.89%, -5.4%, 0.217% and -7.33%.
As for `Cc1ccc(C(N)=O)cc1-c1cc(NCc2cccnc2)nc2[nH]ccc12`, the activity change, negative = inhibition was -22.5% in experiment [1]; -10.5% in experiment [2]; -26.8% in experiment [3]; -25.4% in experiment [4]; -37.9% in experiment [5].
Consider `Cn1c(=O)c2c(ncn2CC(=O)N2CCC(Cc3nc(C4CCOCC4)no3)CC2)n(C)c1=O`, for which the activity change, negative = inhibition in experiment [1] was -4.25%; in experiment [2], -4.21%; in experiment [3], 0.227%; in experiment [4] it was -6.55%; in experiment [5] it was -1.9%.
For `CCOc1ccc(N2C(=O)c3cc4sc(CC)cc4n3CC2(C)C(=O)NC2CCCCC2)cc1` (stereo not drawn), in that order: 1.6%, 2.67%, 8.63%, 8.37% and 0.101%.
For `C=C[C@H]1[C@H](O[C@@H]2O[C@H](CO)[C@@H](O)[C@H](O)[C@H]2O)OC=C(C(=O)OC)[C@H]1C[C@@H]1c2cc(O)c(O)cc2CCN1C(C)=O` the same measures were -0.386%, -2.5%, 4.8%, -15.5% and -11%.
For `COc1ccc2c(c1O[C@H]1CCNC1)CCC2` the same measures were 3.31%, 7.58%, -24.2%, -9.02% and 5.68%.
Take `O=S(=O)(c1ccccc1)c1nnn2c1nc(N1CCCCC1)c1ccccc12`: the activity change, negative = inhibition in experiment [1] was -4.75%; in experiment [2], -7.81%; in experiment [3], -4.4%; in experiment [4], -11.7%; in experiment [5] it was -4.92%.
As to `O=C1CCC[C@@H]2[C@@H]3CCC[N@+]4([O-])CCC[C@H](CN12)[C@H]34`, the activity change, negative = inhibition was 6.07% in experiment [2], -8.72% in experiment [4] and 7.3% in experiment [5].
Regarding `COc1cc(N2CCOCC2)ccc1NC(=O)c1csc(-c2cccnc2)n1`, the activity change, negative = inhibition in experiment [1] was -13.6%; in experiment [2] it was -6.82%; in experiment [3] it was 3.47%; in experiment [4], -21.7%; in experiment [5] it was -5.23%.
For `CC12CCC3c4ccc(O)cc4CCC3C1CCC2OC1OC(C(=O)O)C(O)C(O)C1O` (stereo not drawn), in that order: -5.49%, -1.54%, 10.6%, -9.71% and 1.48%.
